# Values joined by “and” are separate entries in the source; they are usually repeats but may differ in a detail not shown here. Equal entries are not always repeated. Inconclusive results, whose numbers are uncertain, are shown with a selection of clear calls. For some of these results: Potencies beside an inconclusive call are fits to weak or partial responses and may not hold up. Active and inactive are the calls of the source. Unless noted, calls come from the whole dose curve; as a rule, active = well fitted curve in the direction sought with a large enough effect in the repeat runs; inconclusive = weak or mixed curves; inactive = no such curve, though single readings can be large; an effect the other way counts as inactive or inconclusive.
# Assays:
# [1] = target: Peroxisome proliferator-activated receptor gamma (Homo sapiens) (UniProt P37231); assay: qHTS assay to identify small molecule antagonists of the peroxisome proliferator-activated receptor gamma (PPARg) signaling pathway (AID 743191; calls by dose curve; note: nearly all actives have a fitted effect of over 30% in size; note: potency is the fitted concentration of half-maximal effect; for ratio activity, negative = inhibition: % is set by controls: 0 for no effect and ±100 for the full control effect); settings: HEK293H PPARg-UAS-bla, beta-lactamase ratio, antagonist, 17 h; ratio activity, negative = inhibition: at 62.6 µM (top of the series) unless noted
# Procedure, shortened: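 GeneBLAzer PPARg UAS-bla HEK293H cells carrying a UAS-driven beta-lactamase reporter were plated at 3000 cells/well, preincubated 5 h at 37C, then given compound for 17 h at 37C; LiveBLAzer B/G FRET substrate was read after 1 h at room temperature.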
# [2] = qHTS assay to identify small molecule antagonists of the peroxisome proliferator-activated receptor gamma (PPARg) signaling pathway - cell viability counter screen (AID 743194); settings: PPARg-bla HEK293H viability, CellTiter-Glo luminescence, 17 h; Potency: co-treated with 50 nM rosiglitazone unless noted; activity change, negative = cytotoxicity: at 62.6 µM (top of the series), co-treated with 50 nM rosiglitazone unless noted; note: nearly all actives have a fitted effect of over 55% in size; note: potency is the fitted concentration of half-maximal effect
# Procedure, shortened: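 PPARg-UAS-bla HEK293H cells were plated, rested 5 h at 37 C, then treated with compounds plus rosiglitazone (50 nM final) for 17 h at 37 C; viability was then read by CellTiter-Glo luminescence after 30 min at room temperature.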
# [3] = qHTS assay for small molecule agonists of the antioxidant response element (ARE) signaling pathway (AID 743202; active = well fitted activation curve with a large enough effect in the signal ratio in the repeat runs, not every such curve was filed as active; inconclusive = weak or mixed curves, or effect the other way; inactive = no such curve, though single readings can be large or run the other way; the % refers to the signal ratio; note: potency is the fitted concentration of half-maximal effect); settings: HepG2 ARE-bla reporter, beta-lactamase FRET, 16 h; activation: at 73.3 µM (top of the series) unless noted
# Procedure, shortened: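 Read-out: LiveBLAzer B/G FRET substrate fluorescence after 2 h at room temperature, following 16 h compound treatment at 37 C of HepG2 cells carrying an ARE-driven beta-lactamase reporter.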
# [4] = qHTS assay for small molecule activators of the heat shock response signaling pathway (AID 743210; active = well fitted activation curve with a large enough effect in the signal ratio in the repeat runs, with a control signal flat, not every such curve was filed as active; inconclusive = weak or mixed curves; the % refers to the signal ratio; note: potency is the fitted concentration of half-maximal effect); settings: HeLa HSE-bla reporter, beta-lactamase ratio, 5 h; activation: at 62.6 µM (top of the series)
# Procedure, shortened: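 HSE-bla HeLa cells (beta-lactamase reporter under heat shock response elements) were exposed to compounds for 5 h at 37 C, then loaded with LiveBLAzer B/G FRET substrate for 2.5 h at room temperature before fluorescence reading.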
# [5] = qHTS assay to identify small molecule agonists of the peroxisome proliferator-activated receptor delta (PPARd) signaling pathway - cell viability counter screen (AID 743211); settings: PPARd-bla HEK293H viability, CellTiter-Glo luminescence, 17 h; activity change, negative = cytotoxicity: at 62.6 µM (top of the series) unless noted; note: potency is the fitted concentration of half-maximal effect; nearly all actives have a fitted effect of over 55% in size
# Procedure, shortened: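 PPARd-bla HEK293H cells (UAS-beta-lactamase reporter) were treated with compounds for 17 h at 37 C. Viability was then read in the same wells by CellTiter-Glo luminescence after 30 min at room temperature.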
# [6] = target: Peroxisome proliferator-activated receptor delta (Homo sapiens) (UniProt Q03181); assay: qHTS assay to identify small molecule agonists of the peroxisome proliferator-activated receptor delta (PPARd) signaling pathway (AID 743212; calls by dose curve; note: % is set by controls: 0 for no effect and ±100 for the full control effect); settings: HEK293H PPARd-UAS-bla, beta-lactamase FRET ratio, 17 h; activation: at 62.6 µM (top of the series) unless noted
# Procedure, shortened: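 GeneBLAzer PPARd UAS-bla HEK293H cells (beta-lactamase reporter under UAS control), plated and rested 5 h at 37 C, then exposed to compounds in DMSO at 37 C; LiveBLAzer B/G FRET substrate added, 2 h room temperature, fluorescence read.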
# [7] = target: Peroxisome proliferator-activated receptor delta (Homo sapiens) (UniProt Q03181); assay: qHTS assay to identify small molecule antagonists of the peroxisome proliferator-activated receptor delta (PPARd) signaling pathway (AID 743215; active = well fitted inhibition curve with a large enough effect in the signal ratio in the repeat runs, not every such curve was filed as active; inconclusive = weak or mixed curves, or effect the other way; inactive = no such curve, though single readings can be large or run the other way; the % refers to the signal ratio; note: potency is the fitted concentration of half-maximal effect;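 for all read-outs here: cells stimulated with agonist L165041 at 300 nM final during compound exposure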); settings: HEK293H PPARd-UAS-bla, beta-lactamase FRET ratio, antagonist, 17 h; for Potency: ratio activity, negative = inhibition: at 62 µM (top of the series) unless noted
# Procedure, shortened: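 PPARd UAS-bla HEK293H cells were pre-incubated 5 h at 37 C, then given test compounds in DMSO plus agonist L165041 (300 nM final). After 17 h at 37 C, beta-lactamase FRET substrate was added; fluorescence read after 2 h at room temperature.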
# [8] = qHTS assay to identify small molecule agonists of the NFkB signaling pathway - cell viability counter screen (AID 1159515; calls by dose curve; note: nearly all actives have a fitted effect of over 55% in size; note: potency is the fitted concentration of half-maximal effect)
# Procedure, shortened: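 NFkB-bla ME-180 cells, 2,000/well, were plated overnight at 37 C, 5% CO2, then exposed to compounds in DMSO for 5 hr. After the bla FRET read, CellTiter-Glo was added to the same wells; luminescence was read after 30 min at room temperature.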
# [9] = target: Vitamin D3 receptor (Homo sapiens) (UniProt P11473); assay: qHTS assay to identify small molecule antagonists of the vitamin D receptor (VDR) signaling pathway (AID 743223; active = well fitted inhibition curve with a large enough effect in the signal ratio in the repeat runs, not every such curve was filed as active; inconclusive = weak or mixed curves, or effect the other way; inactive = no such curve, though single readings can be large or run the other way; the % refers to the signal ratio; note: % is set by controls: 0 for no effect and ±100 for the full control effect); settings: VDR-UAS-bla HEK293T, beta-lactamase FRET ratio, 16 h; activity change, negative = inhibition: at 61 µM (top of the series) unless noted
# Procedure, shortened: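 VDR-bla cells were plated, incubated 4 h at 37C, then given compound and 1alpha,25-dihydroxyvitamin D3 (3 nM final). After 16 h at 37C, LiveBLAzer B/G FRET substrate was added for 2 h at room temperature and fluorescence read.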
# [10] = qHTS assay to identify small molecule antagonists of the vitamin D receptor (VDR) signaling pathway - cell viability counter screen (AID 743225); settings: VDR-bla HEK293T viability, CellTiter-Glo luminescence, 16 h; viability change, negative = cytotoxic: at 61 µM (top of the series) unless noted; note: nearly all actives have a fitted effect of over 50% in size; note: potency is the fitted concentration of half-maximal effect
# Procedure, shortened: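 VDR-bla HEK 293T cells, 4 h pre-incubation at 37C, then compound plus 1-alpha,25-dihydroxyvitamin D3 (3 nM final) for 16 h. After the beta-lactamase FRET read, CellTiter-Glo was added to the same wells; luminescence after 30 min at room temperature.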
# [11] = qHTS assay for small molecule agonists of the antioxidant response element (ARE) signaling pathway - cell viability counter screen (AID 743203; calls by dose curve; note: potency is the fitted concentration of half-maximal effect; nearly all actives have a fitted effect of over 55% in size)
# Procedure, shortened: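 CellSensor ARE-bla HepG2 cells, 2,000 per well, rested 5 hrs at 37C/5% CO2, then exposed to compound in DMSO for 16 hrs; viability read as CellTiter-Glo luminescence after 30 min at room temperature, in the reporter wells.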
# [12] = qHTS assay for small molecule activators of the heat shock response signaling pathway - cell viability counter screen (AID 743209); settings: HSE-bla HeLa viability, CellTiter-Glo luminescence, 5 h; activity change, negative = cytotoxicity: at 62.6 µM (top of the series) unless noted; note: nearly all actives have a fitted effect of over 50% in size; note: potency is the fitted concentration of half-maximal effect
# Procedure, shortened: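 CellSensor HSE-bla HeLa cells, plated overnight at 37 C/5% CO2, were exposed to compounds in DMSO for 5 h at 37 C. Viability was then read in the same wells by CellTiter-Glo luminescence after 30 min at room temperature.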
# [13] = qHTS assay to identify small molecule antagonists of the peroxisome proliferator-activated receptor delta (PPARd) signaling pathway - cell viability counter screen (AID 743213); settings: PPARd-bla HEK293H viability, CellTiter-Glo luminescence, 17 h; viability change, negative = cytotoxic: at 62 µM (top of the series) unless noted; note: nearly all actives have a fitted effect of over 50% in size; note: potency is the fitted concentration of half-maximal effect
# Procedure, shortened: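 Luminescence from CellTiter-Glo, added after the bla read and incubated 30 min at room temperature, gives viability of HEK293H PPARd-bla cells exposed to compounds for 17 h at 37 C with 300 nM L165041.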
# [14] = target: Bile acid receptor (Homo sapiens) (UniProt Q96RI1); assay: qHTS assay to identify small molecule antagonists of the farnesoid-X-receptor (FXR) signaling pathway (AID 743217; active = well fitted inhibition curve with a large enough effect in the signal ratio in the repeat runs, not every such curve was filed as active; inconclusive = weak or mixed curves, or effect the other way; inactive = no such curve, though single readings can be large or run the other way; the % refers to the signal ratio; note: potency is the fitted concentration of half-maximal effect); settings: HEK293T FXR-UAS-bla, beta-lactamase ratio, CDCA-stimulated, 16 h; activity change, negative = inhibition: at 62.6 µM (top of the series) unless noted
# Procedure, shortened: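 FXR-UAS-bla HEK 293T cells pre-incubated 5 h at 37 °C, then exposed to compounds with chenodeoxycholic acid (50 uM final) for 16 h at 37 °C. Beta-lactamase reporter read by LiveBLAzer B/G FRET substrate fluorescence after 2 h at room temperature.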
# [15] = qHTS assay to identify small molecule agonists of the farnesoid-X-receptor (FXR) signaling pathway - cell viability counter screen (AID 743218); settings: FXR-bla HEK293T viability, CellTiter-Glo luminescence, 16 h; viability change, negative = cytotoxic: at 62.6 µM (top of the series) unless noted; note: potency is the fitted concentration of half-maximal effect; nearly all actives have a fitted effect of over 45% in size
# Procedure, shortened: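 FXR-UAS-bla HEK 293T cells, plated 5 h at 37 C, were exposed to compounds for 16 h at 37 C. CellTiter-Glo was then added to the same wells as the bla readout; luminescence read after 30 min at room temperature.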
# [16] = qHTS assay to identify small molecule antagonists of the farnesoid-X-receptor (FXR) signaling pathway - cell viability counter screen (AID 743221; active = well fitted cell-killing curve with a large enough effect in the repeat runs, not every such curve was filed as active; inconclusive = weak or mixed curves, or effect the other way; inactive = no such curve, though single readings can be large or run the other way; note: potency is the fitted concentration of half-maximal effect; nearly all actives have a fitted effect of over 50% in size); settings: FXR-bla HEK293T viability, CellTiter-Glo luminescence, 16 h; activity change, negative = cytotoxicity: at 62.6 µM (top of the series) unless noted
# Procedure, shortened: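 FXR-UAS-bla HEK 293T cells were treated with test compounds plus chenodeoxycholic acid (50 uM final) for 16 h at 37 C. Cell viability in the same wells was then read as CellTiter-Glo luminescence after 30 min at room temperature.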
# [17] = target: Bile acid receptor (Homo sapiens) (UniProt Q96RI1); assay: qHTS assay to identify small molecule agonists of the farnesoid-X-receptor (FXR) signaling pathway (AID 743220; active = well fitted activation curve with a large enough effect in the signal ratio in the repeat runs, not every such curve was filed as active; inconclusive = weak or mixed curves, or effect the other way; the % refers to the signal ratio; note: % is set by controls: 0 for no effect and ±100 for the full control effect); settings: HEK293T FXR-UAS-bla, beta-lactamase FRET ratio, 16 h; activation: at 62.6 µM (top of the series) unless noted
# Procedure, shortened: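 Beta-lactamase reporter under UAS control in GeneBLAzer FXR HEK 293T cells (5000/well) measured with LiveBLAzer FRET substrate after 2 h at room temperature. Compound exposure lasted 16 h at 37C.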
# [18] = target: Vitamin D3 receptor (Homo sapiens) (UniProt P11473); assay: qHTS assay to identify small molecule agonists of the vitamin D receptor (VDR) signaling pathway (AID 743222; calls by dose curve; note: potency is the fitted concentration of half-maximal effect); settings: HEK293T VDR-UAS-bla, beta-lactamase FRET ratio, 16 h; activation: at 63.5 µM (top of the series) unless noted
# Procedure, shortened: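 VDR-bla cells were plated 4 h at 37C/5% CO2, then exposed to compounds in DMSO for 16 h. After LiveBLAzer B/G FRET substrate addition and 2 h at room temperature, beta-lactamase reporter fluorescence was read.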
# Tags give direction and shape of the fitted curve or compound fluorescence and quenching.
# Sequence of UniProt Q96RI1 (Q96RI1 whole entry, looked up): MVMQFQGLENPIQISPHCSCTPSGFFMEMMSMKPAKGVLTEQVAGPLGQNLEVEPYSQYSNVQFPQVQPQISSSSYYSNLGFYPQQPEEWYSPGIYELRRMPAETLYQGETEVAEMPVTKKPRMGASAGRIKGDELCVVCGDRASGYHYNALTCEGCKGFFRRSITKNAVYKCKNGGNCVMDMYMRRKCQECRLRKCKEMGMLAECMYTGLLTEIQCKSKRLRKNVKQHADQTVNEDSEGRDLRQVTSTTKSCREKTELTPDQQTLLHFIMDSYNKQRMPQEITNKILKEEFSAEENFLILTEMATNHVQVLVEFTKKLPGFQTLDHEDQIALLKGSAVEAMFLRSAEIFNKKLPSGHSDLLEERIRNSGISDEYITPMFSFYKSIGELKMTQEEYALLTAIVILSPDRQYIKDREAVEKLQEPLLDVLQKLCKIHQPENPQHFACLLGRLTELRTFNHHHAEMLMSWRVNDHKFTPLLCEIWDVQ
# Sequence of UniProt Q03181 (Q03181 whole entry, looked up): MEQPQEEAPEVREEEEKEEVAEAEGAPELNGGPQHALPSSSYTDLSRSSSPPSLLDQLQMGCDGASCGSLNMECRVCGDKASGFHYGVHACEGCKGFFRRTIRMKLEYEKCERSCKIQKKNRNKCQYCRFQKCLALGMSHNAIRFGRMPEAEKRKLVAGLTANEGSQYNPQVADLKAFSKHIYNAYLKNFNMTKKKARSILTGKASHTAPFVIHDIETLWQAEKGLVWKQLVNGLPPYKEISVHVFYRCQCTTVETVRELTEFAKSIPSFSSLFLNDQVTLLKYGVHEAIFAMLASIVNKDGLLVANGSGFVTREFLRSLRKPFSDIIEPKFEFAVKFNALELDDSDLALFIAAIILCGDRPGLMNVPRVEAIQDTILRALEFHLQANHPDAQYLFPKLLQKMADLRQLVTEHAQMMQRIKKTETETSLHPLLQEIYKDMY
# Sequence of UniProt P37231 (P37231 whole entry, looked up): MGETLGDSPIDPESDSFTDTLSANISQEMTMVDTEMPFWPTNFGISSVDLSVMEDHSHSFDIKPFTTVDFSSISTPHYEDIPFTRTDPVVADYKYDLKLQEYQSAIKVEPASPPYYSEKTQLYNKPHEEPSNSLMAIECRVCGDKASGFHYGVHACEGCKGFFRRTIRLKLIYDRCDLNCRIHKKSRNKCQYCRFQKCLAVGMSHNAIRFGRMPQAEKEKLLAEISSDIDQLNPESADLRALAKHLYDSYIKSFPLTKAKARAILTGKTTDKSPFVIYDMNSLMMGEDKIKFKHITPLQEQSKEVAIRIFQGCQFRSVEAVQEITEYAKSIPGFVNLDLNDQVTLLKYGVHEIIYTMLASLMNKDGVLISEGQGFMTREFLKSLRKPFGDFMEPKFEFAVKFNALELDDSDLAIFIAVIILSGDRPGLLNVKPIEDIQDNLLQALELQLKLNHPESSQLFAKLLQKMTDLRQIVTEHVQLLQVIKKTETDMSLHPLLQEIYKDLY
# Sequence of UniProt P11473 (P11473 whole entry, looked up): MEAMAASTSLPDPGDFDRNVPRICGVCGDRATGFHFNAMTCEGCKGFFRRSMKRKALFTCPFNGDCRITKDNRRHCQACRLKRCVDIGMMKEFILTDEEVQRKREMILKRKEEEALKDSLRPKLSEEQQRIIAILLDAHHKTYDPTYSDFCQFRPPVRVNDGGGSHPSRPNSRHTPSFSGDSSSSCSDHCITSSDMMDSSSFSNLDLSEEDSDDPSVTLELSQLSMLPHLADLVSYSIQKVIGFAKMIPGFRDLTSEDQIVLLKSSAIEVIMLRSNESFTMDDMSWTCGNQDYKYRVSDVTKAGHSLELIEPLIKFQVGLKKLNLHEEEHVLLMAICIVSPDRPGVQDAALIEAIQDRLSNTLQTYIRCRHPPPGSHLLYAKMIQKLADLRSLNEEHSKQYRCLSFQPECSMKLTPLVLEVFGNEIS
structure (smiles),measurement,setting,value
[Cl][Sb]([Cl])[Cl],"ratio activity, negative = inhibition",[1],inconclusive: 0.106%
same,Potency,[2],"inconclusive: 13.8 µM [cytotoxic, partial curve, poor fit]"
same,Potency,[3],active: 5.45 µM
same,Potency,[4],inconclusive: 19.5 µM
same,Potency,[5],"inconclusive: 61.6 µM [cytotoxic, single point]"
same,Potency,[6],inactive
same,Potency,[7],"inconclusive: 4.9 µM [inhibitor, full curve]"
same,Potency,[8],"inconclusive: 0.195 µM [cytotoxic, single point]"
C#CCOC(C(=O)OCCN(C)C)(c1ccccc1)c1ccccc1,Potency,[1],inactive
same,Potency,[2],inactive
same,Potency,[4],inactive
same,"activity change, negative = inhibition",[9],inconclusive: 20.9%
same,Potency,[10],inactive
same,Potency,[8],"inconclusive: 26.8 µM [cytotoxic, partial curve, poor fit]"
N#Cc1cc(Br)c(O)c(Br)c1,Potency,[1],active: 54.9 µM and active: 21.1 µM
same,activation,[3],inconclusive: 14.8% and inconclusive: 4.5%
same,Potency,[11],"inconclusive: 34.3 µM [cytotoxic, partial curve, poor fit]"
same,Potency,[12],"inconclusive: 6.16 µM [cytotoxic, full curve]"
same,Potency,[5],"inconclusive: 2.98 µM [cytotoxic, full curve, poor fit]"
same,Potency,[13],"inconclusive: 15.5 µM [cytotoxic, full curve, poor fit] and inconclusive: 1.06 µM [cytotoxic, full curve, poor fit]"
same,"activity change, negative = inhibition",[14],inconclusive: -25.7%
same,Potency,[15],"inconclusive: 17.4 µM [cytotoxic, partial curve, poor fit] and inconclusive: 5.94 µM [cytotoxic, partial curve, poor fit]"
same,Potency,[16],"inconclusive: 5.29 µM [falling, full curve]"
same,Potency,[10],"inconclusive: 48.9 µM [cytotoxic, partial curve, poor fit] and inconclusive: 13.3 µM [cytotoxic, full curve]"
same,Potency,[8],"inconclusive: 34.6 µM [rising, partial curve, poor fit] and inconclusive: 47.2 µM [rising, partial curve, poor fit]"
Nc1cc(Cl)cc(Cl)c1,Potency,[1],"inconclusive: 0.119 µM [activator, single point]"
same,"ratio activity, negative = inhibition",[1],inconclusive: -7.62%
same,Potency,[2],"inconclusive: 3.34 µM [rising, partial curve]"
same,Potency,[4],inactive
same,Potency,[13],"inconclusive: 1.06 µM [cytotoxic, single point]"
same,Potency,[7],inactive
same,Potency,[9],inactive
same,Potency,[8],inactive
Cc1ccc(C)c2ccccc12,"ratio activity, negative = inhibition",[1],inconclusive: 22.2%
same,Potency,[2],"inconclusive: 43.6 µM [cytotoxic, partial curve, poor fit]"
same,Potency,[12],inactive
same,Potency,[13],inactive
same,Potency,[17],inactive
same,Potency,[9],inactive
same,Potency,[8],inactive
O=C1NCN(c2ccccc2)C12CCN(CC1COc3ccccc3O1)CC2 (configuration not stated),Potency,[1],"inconclusive: 13.3 µM [activator, single point]"
same,"activity change, negative = cytotoxicity",[2],inconclusive: -41.1% [cytotoxic]
same,Potency,[4],inactive
same,Potency,[5],"inconclusive: 26.6 µM [cytotoxic, partial curve]"
same,Potency,[13],"inconclusive: 29.8 µM [cytotoxic, partial curve, poor fit]"
same,Potency,[15],"inconclusive: 2.98 µM [cytotoxic, full curve]"
same,Potency,[8],"inconclusive: 21.3 µM [cytotoxic, partial curve]"
OCCOc1ccccc1,"ratio activity, negative = inhibition",[1],inconclusive: 14.7%
same,Potency,[2],"inconclusive: 0.398 µM [cytotoxic, full curve, poor fit]"
same,"ratio activity, negative = inhibition",[7]; at 62 µM (top of the series),inconclusive: 1.14%
same,"ratio activity, negative = inhibition",[7]; at 80.4 µM (top of the series),inconclusive: -13.2%
same,Potency,[15],"inconclusive: 0.0489 µM [rising, full curve, poor fit]"
same,Potency,[9],inactive
same,Potency,[8],"inconclusive: 26.8 µM [rising, partial curve, poor fit]"
CC(C)(C)C(O)/C(=C\c1ccc(Cl)cc1Cl)n1cncn1 (configuration not stated),Potency,[1],active: 52.8 µM
same,Potency,[2],"inconclusive: 29.7 µM [cytotoxic, full curve, poor fit]"
same,Potency,[3],"inconclusive: 83 µM [rising, partial curve, poor fit]"
same,Potency,[4],inconclusive: 49.9 µM
same,Potency,[13],"inconclusive: 66.5 µM [cytotoxic, single point]"
same,Potency,[7],inconclusive: 66.5 µM [inhibitor]
same,Potency,[14],inconclusive: 66.5 µM [single point]
same,Potency,[15],"inconclusive: 66.5 µM [cytotoxic, single point]"
same,Potency,[16],"inconclusive: 66.5 µM [falling, single point]"
same,Potency,[18],inconclusive: 66.5 µM [single point]
same,"activity change, negative = inhibition",[9],inconclusive: -30.9% [at 78.8 µM]
same,Potency,[10],active: 52.8 µM
same,Potency,[8],"inconclusive: 66.5 µM [cytotoxic, single point]"
